{"source": "patent US10112926B2", "about": "(priority 2014, dated 2018)", "note": "Structures can show the parent of a compound that is named as a salt.", "data": [{"test_system": "IL-8-induced neutrophil shape change in human whole blood", "assay": "cells", "conditions": "read-out: Assay L WBSC IC50", "units": {"IC50": "nM"}, "values": [{"smiles": "Cc1ccc(S(=O)(=O)NCC(C)(C)O)cc1-c1cnc(N)c(-c2cnn(C)n2)c1", "note": "[Example 4.4, 3-(6-amino-5-(2-methyl-2H-1,2,3-triazol-4-yl)pyridin-3-yl)-N-(2-hydroxy-2-methylpropyl)-4-methylbenzenesulfonamide hydrochloride]", "IC50": 940}, {"smiles": "Cc1noc(-c2cc(-c3cc(S(=O)(=O)NCC(C)(C)O)c(F)cc3C)cnc2N)n1", "note": "[Example 85, 5-(6-Amino-5-(3-methyl-1,2,4-oxadiazol-5-yl)pyridin-3-yl)-2-fluoro-N-(2-hydroxy-2-methylpropyl)-4-methylbenzenesulfonamide]", "IC50": 1420}, {"smiles": "Cc1noc(-c2cc(-c3cc(S(=O)(=O)NC4CC5(CC(O)C5)C4)ccc3C)cnc2N)n1", "note": "(racemic) [Example 8, 3-[6-Amino-5-(3-methyl-[1,2,4]oxadiazol-5-yl)-pyridin-3-yl]-N-(6-hydroxy-spiro[3.3]hept-2-yl)-4-methyl-benzenesulfonamide (racemate)]", "IC50": 920}, {"smiles": "Cc1cc(-c2cc(-c3cc(S(=O)(=O)NCC4(O)CCOCC4)ccc3C)cnc2N)on1", "note": "[Example 54, 3-(6-Amino-5-(3-methylisoxazol-5-yl)pyridin-3-yl)-N-((4-hydroxytetrahydro-2H-pyran-4-yl)methyl)-4-methylbenzenesulfonamide]", "IC50": 1020}, {"smiles": "Cc1cc(-c2cc(-c3cc(S(=O)(=O)N[C@@H]4CNC[C@H]4O)ccc3C)cnc2N)on1", "note": "[Example 19.4, 3-(6-amino-5-(3-methylisoxazol-5-yl)pyridin-3-yl)-N-(trans-4-hydroxypyrrolidin-3-yl)-4-methylbenzenesulfon-amide acetic acid salt]", "IC50": 29100}, {"smiles": "Cc1ccc(S(=O)(=O)NCCC(C)(C)O)cc1-c1cnc(N)c(-c2cnn(C)c2)c1", "note": "[Example 2, 3-(6-Amino-5-(1-methyl-1H-pyrazol-4-yl)pyridin-3-yl)-N-(3-hydroxy-3-methylbutyl)-4-methylbenzenesulfonamide]", "IC50": 840}, {"smiles": "Cc1ccc(S(=O)(=O)N[C@H]2CC[C@H](O)CC2)cc1-c1cnc(N)c(-c2nc(CC(F)(F)F)no2)c1", "note": "[Example 78, trans-3-(6-Amino-5-(3-(2,2,2-trifluoroethyl)-1,2,4-oxadiazol-5-yl)pyridin-3-yl)-N-((1r,4r)-4-hydroxycyclohexyl)-4-methylbenzenesulfonamide]", "IC50": 1970}, {"smiles": "Cc1cc(-c2cc(-c3cc(S(=O)(=O)N[C@H]4CC[C@H](O)CC4)ccc3C)cnc2N)ccn1", "note": "[Example 4.3, trans 3-(2-Amino-2′-methyl-[3,4′-bipyridin]-5-yl)-N-(4-hydroxycyclohexyl)-4-methyl-benzenesulfonamide]", "IC50": 1020}, {"smiles": "Cc1ncc(-c2cc(-c3cc(S(=O)(=O)NCC4(CO)COC4)ccc3C)cnc2N)o1", "note": "[Example 67, 3-(6-Amino-5-(2-methyloxazol-5-yl)pyridin-3-yl)-N-((3-(hydroxymethyl)oxetan-3-yl)methyl)-4-methylbenzenesulfonamide]", "IC50": 670}, {"smiles": "Cc1ncc(-c2cc(-c3cc(S(=O)(=O)NCC(C)(C)O)ccc3C)cnc2N)o1", "note": "[Example 6, 3-(6-Amino-5-(2-methyloxazol-5-yl)pyridin-3-yl)-N-(2-hydroxy-2-methylpropyl)-4-methylbenzenesulfonamide]", "IC50": 990}, {"smiles": "Cc1ccc(S(=O)(=O)NCC(C)(C)O)cc1-c1cnc(N)c(-c2cc(C(=O)N3CCOCC3)no2)c1", "note": "[Example 42, 3-(6-Amino-5-(3-(morpholine-4-carbonyl)isoxazol-5-yl)pyridin-3-yl)-N-(2-hydroxy-2-methylpropyl)-4-methylbenzenesulfonamide]", "IC50": 900}, {"smiles": "Cc1noc(-c2cc(-c3cc(S(=O)(=O)NCCC(C)(C)O)ccc3C)cnc2N)n1", "note": "[Example 5, 3-[6-Amino-5-(3-methyl-[1,2,4]oxadiazol-5-yl)-pyridin-3-yl]-N-(3-hydroxy-3-methyl-butyl)-4-methyl-benzenesulfonamide hydrochloride]", "IC50": 250}, {"smiles": "Cc1cc(-c2cc(-c3cc(S(=O)(=O)N[C@H]4CC[C@H](CO)CC4)ccc3C)cnc2N)ccn1", "note": "[Example 77, trans-3-(2-Amino-2′-methyl-[3,4′-bipyridin]-5-yl)-N-(−4-(hydroxymethyl)cyclohexyl)-4-methylbenzenesulfonamide hydrochloride]", "IC50": 920}, {"smiles": "CCc1cc(-c2cc(-c3cc(S(=O)(=O)NCC(C)(C)O)ccc3C)cnc2N)on1", "note": "[Example 4.6, 3-(6-Amino-5-(3-ethylisoxazol-5-yl)pyridin-3-yl)-N-(2-hydroxy-2-methylpropyl)-4-methyl-benzenesulfonamide hydrochloride]", "IC50": 1770}, {"smiles": "Cc1noc(-c2cc(-c3cc(S(=O)(=O)NCC4(O)COC4)ccc3C)cnc2N)n1", "note": "[Example 56, 3-(6-Amino-5-(3-methyl-1,2,4-oxadiazol-5-yl)pyridin-3-yl)-N-((3-hydroxyoxetan-3-yl)methyl)-4-methylbenzenesulfonamide]", "IC50": 1710}, {"smiles": "Cc1noc(-c2cc(-c3cc(S(=O)(=O)N[C@H]4CC[C@H](O)CC4)ccc3C)cnc2N)n1", "note": "[Example 12, trans 3-[6-Amino-5-(3-methyl-[1,2,4]oxadiazol-5-yl)-pyridin-3-yl]-N-(4-hydroxy-cyclohexyl)-4-methyl-benzenesulfonamide, hydrochloride salt]", "IC50": 380}, {"smiles": "Cc1cc(-c2cc(-c3cc(S(=O)(=O)NCC4(C)COC4)ccc3C)cnc2N)on1", "note": "[Example 17, 3-[6-Amino-5-(3-methyl-isoxazol-5-yl)-pyridin-3-yl]-4-methyl-N-(3-methyl-oxetan-3-ylmethyl)-benzenesulfonamide hydrochloride]", "IC50": 2620}, {"smiles": "Cc1cc(-c2cc(-c3cc(S(=O)(=O)N[C@H]4CC[C@H](O)C4)ccc3C)cnc2N)on1", "note": "(racemic) [Example 96, trans-3-(6-amino-5-(3-methylisoxazol-5-yl)pyridin-3-yl)-N-(3-hydroxycyclopentyl)-4-methylbenzenesulfonamide]", "IC50": 600}, {"smiles": "Cc1ncc(-c2cc(-c3cc(S(=O)(=O)N[C@H]4CC[C@H](O)CC4)ccc3C)cnc2N)o1", "note": "[Example 98, 3-(6-amino-5-(2-methyloxazol-5-yl)pyridin-3-yl)-N-((1r,4r)-4-hydroxycyclohexyl)-4-methylbenzenesulfonamide hydrochloride]", "IC50": 310}, {"smiles": "Cc1cc(-c2cc(-c3cc(S(=O)(=O)NC[C@@H]4CCOC4)ccc3C)cnc2N)on1", "note": "[Example 38, (S)-3-(6-Amino-5-(3-methylisoxazol-5-yl)pyridin-3-yl)-4-methyl-N-((tetrahydrofuran-3-yl)methyl)benzenesulfonamide]", "IC50": 650}, {"smiles": "Cc1nnc(-c2cc(-c3cc(S(=O)(=O)NCCC(C)(C)O)ccc3C)cnc2N)s1", "note": "[Example 105, 3-(6-amino-5-(5-methyl-1,3,4-thiadiazol-2-yl)pyridin-3-yl)-N-(3-hydroxy-3-methylbutyl)-4-methylbenzenesulfonamide]", "IC50": 1920}, {"smiles": "Cc1nnc(-c2cc(-c3cc(S(=O)(=O)NCC(C)(C)O)ccc3C)cnc2N)s1", "note": "[Example 102, 3-(6-amino-5-(5-methyl-1,3,4-thiadiazol-2-yl)pyridin-3-yl)-N-(2-hydroxy-2-methylpropyl)-4-methylbenzenesulfonamide]", "IC50": 980}, {"smiles": "Cc1ncc(-c2cc(-c3cc(S(N)(=O)=O)ccc3C)cnc2N)o1", "note": "[Example 33, 3-(6-Amino-5-(2-methyloxazol-5-yl)pyridin-3-yl)-4-methylbenzenesulfonamide]", "IC50": 19400}, {"smiles": "Cc1cccc(NS(=O)(=O)c2ccc(C)c(-c3cnc(N)c(-c4nc(C)no4)c3)c2)n1", "note": "[Example 72, 3-(6-Amino-5-(3-methyl-1,2,4-oxadiazol-5-yl)pyridin-3-yl)-4-methyl-N-(6-methylpyridin-2-yl)benzenesulfonamide]", "IC50": 19400}, {"smiles": "Cc1ncc(-c2cc(-c3cc(S(=O)(=O)NCC4(O)COC4)ccc3C)cnc2N)s1", "note": "[Example 83.3, 3-(6-amino-5-(2-methylthiazol-5-yl)pyridin-3-yl)-N-((3-hydroxyoxetan-3-yl)methyl)-4-methylbenzenesulfonamide]", "IC50": 760}, {"smiles": "Cc1ncc(-c2cc(-c3cc(S(=O)(=O)NCC(C)(C)O)ccc3C)cnc2N)s1", "note": "[Example 15, 3-[6-Amino-5-(2-methyl-thiazol-5-yl)-pyridin-3-yl]-N-(2-hydroxy-2-methyl-propyl)-4-methyl-benzenesulfonamide]", "IC50": 1910}, {"smiles": "Cc1noc(-c2cc(-c3cc(S(=O)(=O)NOCC(C)(C)O)ccc3C)cnc2N)n1", "note": "[Example 11, 3-[6-Amino-5-(3-methyl-[1,2,4]oxadiazol-5-yl)-pyridin-3-yl]-N-(2-hydroxy-2-methyl-propoxy)-4-methyl-benzenesulfonamide, hydrochloride salt]", "IC50": 440}, {"smiles": "Cc1ncc(-c2cc(-c3cc(S(=O)(=O)NCCC(C)(C)O)ccc3C)cnc2N)o1", "note": "[Example 13, 3-[6-Amino-5-(2-methyl-oxazol-5-yl)-pyridin-3-yl]-N-(3-hydroxy-3-methyl-butyl)-4-methyl-benzenesulfonamide, hydrochloride salt]", "IC50": 660}, {"smiles": "Cc1cc(-c2cc(-c3cc(S(=O)(=O)NCCC(C)(C)O)ccc3C)cnc2N)ccn1", "note": "[Example 16, 3-(2-Amino-2′-methyl-[3,4′]bipyridinyl-5-yl)-N-(3-hydroxy-3-methyl-butyl)-4-methyl-benzenesulfonamide]", "IC50": 2470}, {"smiles": "Cc1noc(-c2cc(-c3cc(S(=O)(=O)N[C@H]4CC5(C[C@@H](O)C5)C4)ccc3C)cnc2N)n1", "note": "(single isomer, unassigned) [Example 8.1, (R) or (S)-3-[6-Amino-5-(3-methyl-[1,2,4]oxadiazol-5-yl)-pyridin-3-yl]-N-(6-hydroxy-spiro[3.3]hept-2-yl)-4-methyl-benzenesulfonamide hydrochloride]", "IC50": 530}, {"smiles": "Cc1ncc(-c2cc(-c3cc(S(=O)(=O)NCC4(CO)COC4)ccc3C)cnc2N)s1", "note": "[Example 68, 3-(6-Amino-5-(2-methylthiazol-5-yl)pyridin-3-yl)-N-((3-(hydroxymethyl)oxetan-3-yl)methyl)-4-methylbenzenesulfonamide]", "IC50": 630}, {"smiles": "Cc1cc(-c2cc(-c3cc(S(=O)(=O)NCC4COC4)ccc3C)cnc2N)on1", "note": "[Example 25, 3-(6-Amino-5-(3-methylisoxazol-5-yl)pyridin-3-yl)-4-methyl-N-(oxetan-3-ylmethyl)benzenesulfonamide]", "IC50": 1030}]}]}
